Test results from PubChem BioAssay AID485313 (National Center for Advancing Translational Sciences (NCATS), 2010).
Among all 320,000 compounds or so, about 7,600 (2.4%) were called active. Inconclusive results, whose numbers are uncertain, are shown with a selection of clear calls. The call rests on the fitted dose curve; in most records, active means well fitted activation curve with a large enough effect; inconclusive means small, poorly fitted or top-dose-only effect; inactive means no such curve, though single readings can be large or run the other way. Potencies of inconclusive entries are left out as doubtful fits.

Assay: qHTS Assay for NPC1 Promoter Activators; further: nearly all actives have a fitted effect of over 60% in size;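 on activation: reporter is driven by a mutant NPC1 promoter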
Conditions: Huh7 NPC1 promoter luciferase reporter, 24 h; series mostly up to 9.22 µM
Procedure, shortened: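 Quantitative HTS used a cell-based reporter: Huh7 cells stably bearing the NPC1 promoter upstream of luciferase were treated with compounds for 24 h, and promoter activation was read as luminescence.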
Potency means the concentration at half of the fitted maximal effect; tags describe the fitted curve by direction and shape.

Compound	Potency
COc1ccc2cc(C(=O)NCc3ccccc3)c(=Nc3ccc(C(=O)O)cc3)oc2c1	inactive
Cc1cccc2cc(CN(CCN3CCOCC3)C(=O)Nc3ccccc3F)c(=O)[nH]c12	inactive
N#Cc1c(-c2ccc(Cl)cc2)ccn2nc(C3CCCCC3)nc12	inconclusive [activator, partial curve]
CCOC(=O)c1ccc2nc3c(cc2c1)CCS3	inconclusive [activator, single point]
CC(/C=N/NC(=O)C(O)c1ccccc1)=C\c1ccccc1 (centres undefined)	inconclusive [activator, single point]
COc1ccc(Cl)cc1NC(=O)CCNC(=O)Cn1ccc2ccccc2c1=O	inactive
CC(=O)c1cnc2nc(SCc3ccc(C)cc3)nn2c1C	inactive
COc1ccc2oc(=O)c(-c3nc4ccccc4o3)cc2c1	inconclusive [activator, single point]
CC(=O)c1cccc(NC(=O)c2ccc(-c3ccccc3[N+](=O)[O-])o2)c1	inconclusive [activator, single point]
Nc1nnc(SCC(=O)NCC(=O)Nc2ccc(F)c(F)c2F)s1	inactive
CC1CCC(NC(=O)Cn2ncc3ccccc32)CC1 (centres undefined)	inconclusive [activator, partial curve]
CC(=O)c1cnc2cc(-c3ccc(C)cc3)nn2c1C	inconclusive [activator, single point]
O=C(NCC1CCCCC1)c1cc2ccccc2cc1O	inconclusive [activator, single point]
COc1ccccc1-c1cc(C(=O)N2CCOCC2)no1	inconclusive [activator, single point]
Cc1ccc(NC(=O)Cn2nnc3ccccc32)cc1	inconclusive [activator, single point]
COc1ccc(-c2coc3cc(O)ccc3c2=O)cc1OC	inconclusive [activator, single point]
CCCCc1ccc(-c2ccc(C)cc2O)nc1	active: 0.501 µM
CC(=O)c1ccc(Nc2ccc(-c3ccccc3C)nn2)cc1	inconclusive [activator, partial curve]
Cc1ccc(NC(=S)NC2CCCC2)cc1	inconclusive [activator, partial curve]
COc1cccc(NC(=O)CSc2ccccn2)c1	inconclusive [activator, single point]
O=C(CSc1nnc(-c2ccccc2Cl)o1)N1CCCC1	inconclusive [activator, partial curve]
COC(=O)C1CCN(C(=O)c2cc3ccccc3oc2=O)CC1	inconclusive [activator, partial curve]
NC(=O)c1ccsc1NC(=O)COc1ccccc1	inconclusive [activator, single point]
O=C(NNC(=O)c1ccccc1O)c1ccc(Cl)cc1	inconclusive [activator, partial curve]
Cc1ccc(CSCC(=O)Nc2ccccc2C(=O)O)cc1	active: 3.55 µM
O=c1[nH]c2ccccc2nc1-c1ccccc1	inconclusive [activator, single point]
Fc1ccc(Nc2nc(-c3ccncc3)nc3ccccc23)cc1	inactive

Compound	Potency
CN(C)c1ccc(/C=c2\sc3n(c2=O)CCCN=3)cc1	active: 0.398 µM
O=C(/C=C\N1CCOCC1)c1ccc(Br)cc1	inconclusive [activator, partial curve]
N/C(=N\OC(=O)/C=C/c1ccccc1)c1ccccc1	inconclusive [activator, single point]
O=C(N/N=C/c1cn(-c2ccccc2)nc1-c1cc2ccccc2o1)c1ccncc1	active: 2.82 µM
COc1ccc(S(=O)(=O)N2CCOCC2)cc1NC(=O)Cc1c(F)cccc1Cl	inactive
COc1ccc(C(=O)Nc2cnc(NC(=O)c3cccs3)cc2C)cc1	inconclusive [activator, single point]
N/C(=N\OC(=O)c1ccc2c(c1)OCO2)c1cccnc1	inconclusive [activator, single point]
COc1ccc(OCC(=O)Nc2c3c(nn2-c2ccc(OC)cc2)CS(=O)(=O)C3)cc1	inactive
Cc1ccc(S(=O)(=O)N(C)C)cc1NC(=O)COC(=O)CCC1CCCCC1	inactive
O=C(Nc1ccc(Cl)cc1)Nc1ccc2c(c1)OCO2	active: 1.12 µM
COc1ccc(C(=O)N=c2sc3c(C)ccc(OC)c3n2C)cc1	inconclusive [activator, partial curve, poor fit]
CC(C)CCNC(=O)C(=O)NCC1OCCCN1S(=O)(=O)c1cccs1 (centres undefined)	inactive
Cc1cccc(OCC(=O)Nc2sc3c(c2C#N)CCC3)c1	inconclusive [activator, partial curve]
Cc1nc2ccccc2c2oc(C(=O)NCC3COc4ccccc4O3)cc12 (centres undefined)	inactive
Clc1ccc(-c2cc3ccccc3[nH]2)cc1	inconclusive [activator, single point]
CC1CCN(c2ccc(-c3ccc(NC(=O)C(F)(F)F)cc3)nn2)CC1	active: 0.126 µM
CCSc1nnc(NC(=O)COc2ccccc2[N+](=O)[O-])s1	inconclusive [activator, single point]
CC(C)c1ccc(NC(=S)N2CCCC2)cc1	active: 2.51 µM
COc1ccc(NC(=O)CCC(=O)N(Cc2ccc(OC)c(OC)c2)c2nccs2)c(OC)c1	inactive
CCOc1ccc(-c2ccc(SC)nn2)cc1	active: 0.631 µM
c1ccc2c(c1)oc1c(Nc3ccc4c(c3)OCCO4)ncnc12	inconclusive [activator, single point]
CCOC(=O)c1c(C)[nH]c(C2=NNC(=Nc3ccccc3)SC2)c1C	inconclusive [activator, partial curve]
Cc1ccc2c(CN(C)Cc3ccccc3)cc(=O)oc2c1C	inconclusive [activator, single point]
COc1ccc(-c2nc(-c3cccs3)no2)cc1	active: 0.316 µM
Cc1ccc2nc(-c3cccc(S(=O)(=O)N(C)C)c3)cn2c1	inconclusive [activator, single point]
CC(C)c1ccc(OCc2ccc(C(=O)O)o2)cc1	inconclusive [activator, full curve]
C/C(=N\NC(=O)c1ccccc1O)c1cccc(NC(=O)c2ccccc2)c1	inactive

Compound	Potency
O=C1CCc2cc(NS(=O)(=O)c3ccccc3)cc3c2N1CCC3	inactive
Fc1cccc(/C=N/Nc2nc3ccccc3[nH]2)c1	inconclusive [activator, single point]
COc1cc(OC)cc(C(=O)Nc2ccc3nc4n(c(=O)c3c2)CCCCC4)c1	active: 3.16 µM
O=C(Nc1nccs1)c1sc2cc(Cl)ccc2c1Cl	active: 3.55 µM
O=C(CCc1nnc(-c2ccc(-c3ccccc3)cc2)o1)NCCc1ccccn1	inactive
CCOc1ccc(/C=N/NC(=O)Nc2ccccc2)cc1	inconclusive [activator, single point]
Cc1ccc2nc(N(CCCN(C)C)C(=O)c3ccc4ncsc4c3)sc2c1	inconclusive [activator, partial curve]
O=C(/C=C/c1ccccc1)c1ccccn1	inconclusive [activator, partial curve]
N#C/C(=C\c1ccc[nH]1)C(=O)Nc1ccccc1[N+](=O)[O-]	inconclusive [activator, partial curve]
CC(=O)c1cccc(NC(=O)Nc2ccc3c(c2)CCC3)c1	inconclusive [activator, partial curve]
Cc1cc(N2CCOCC2)ccc1/C=C1/SC(=O)NC1=O	inconclusive [activator, partial curve]
Cc1ccc(-n2ncc3c(N4CCCC4)ncnc32)c(C)c1	inconclusive [activator, partial curve]
Cc1ccc(C(=O)N/C(=C\c2ccc(Br)cc2)c2nc(=S)[nH][nH]2)cc1	inactive
CS(=O)(=O)Nc1cccc(-c2cnc3ccccc3n2)c1	active: 3.16 µM
O=c1c2ccccc2ncn1CCOc1ccccc1[N+](=O)[O-]	inconclusive [activator, single point]
COc1cc(-c2noc(CCC(=O)NC3CCCCC3)n2)cc(OC)c1OC	inactive
Cc1ccccc1Cn1nnc(-c2ccc(C(=O)O)cc2)n1	inactive
Cc1ccc(S(=O)(=O)CCC(=O)Nc2nccs2)cc1	inactive
O=C(CN1C(=O)NC2(CCCc3ccccc32)C1=O)c1ccc(Br)cc1 (centres undefined)	inactive
NC(=O)c1ccsc1NC(=O)CCc1ccccc1	inconclusive [activator, partial curve]
COc1ncccc1-c1nnn(-c2ccc(C)cc2)n1	active: 3.16 µM
Cc1nc(-c2ccc(C(=O)N3CCCC3)cc2)cs1	inconclusive [activator, partial curve]
O=C(/C=C/c1ccco1)Nc1nc(-c2ccccn2)cs1	inconclusive [activator, single point]
Cc1ccc(NC(=O)CSc2ccc(-c3cccnc3)nn2)cc1	inactive
Cc1cccc(C(=O)NC2CC3CCCC(C2)N3S(=O)(=O)c2ccccc2)c1 (centres undefined)	inactive
